The list shows a part of the results. These are noisy estimates, calculated here from bound and input reads.
target: T1, Pho4 (S. cerevisiae) (UniProt P07270); test: relative binding free energy (BET-seq); higher = weaker binding; details: reference: library average
T1 sequence: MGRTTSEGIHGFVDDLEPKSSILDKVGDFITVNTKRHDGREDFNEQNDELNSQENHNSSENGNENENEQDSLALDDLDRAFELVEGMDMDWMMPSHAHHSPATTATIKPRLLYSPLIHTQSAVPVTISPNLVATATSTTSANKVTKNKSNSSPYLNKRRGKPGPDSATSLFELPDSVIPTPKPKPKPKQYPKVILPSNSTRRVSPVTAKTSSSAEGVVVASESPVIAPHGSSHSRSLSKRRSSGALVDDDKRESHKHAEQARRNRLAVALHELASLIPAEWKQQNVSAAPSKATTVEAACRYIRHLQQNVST

| Sequence | relative binding free energy |
| --- | --- |
| GTTTCCACGTGTGTGA | 0.502 kJ/mol |
| TAGAGCACGTGCTGGA | -0.209 kJ/mol |
| ATCGTCACGTGGATGT | 0.418 kJ/mol |
| CAGTGCACGTGGCTGT | 0 kJ/mol |
| TGTTTCACGTGTCATA | 1.59 kJ/mol |
| TCGAGCACGTGGTGTT | -0.628 kJ/mol |
| CGGTGCACGTGATGTG | 0.126 kJ/mol |
| CGTGGCACGTGGGTTG | -0.837 kJ/mol |
| TTCGTCACGTGAGGAA | 0.92 kJ/mol |
| AATGTCACGTGTTTAG | 0.335 kJ/mol |
| AATGGCACGTGGTGAG | -0.962 kJ/mol |
| GACGGCACGTGGGCGT | -0.879 kJ/mol |
| GCGGGCACGTGGCATG | -0.293 kJ/mol |
| CGGGGCACGTGGTGAA | -0.92 kJ/mol |
| TGATCCACGTGAGTGG | 0.46 kJ/mol |
| CGGTTCACGTGTGGAA | 0.628 kJ/mol |
| ATATTCACGTGCTGAG | 0.795 kJ/mol |
| GTTTACACGTGGACGG | 0.962 kJ/mol |
| CTGGTCACGTGGTATA | 0.544 kJ/mol |
| GGAGTCACGTGGCGTC | 0.418 kJ/mol |
| TATTGCACGTGCGGGG | -0.335 kJ/mol |
| TATGGCACGTGGTTAC | -0.628 kJ/mol |
| GGGTTCACGTGGGTGT | 1.09 kJ/mol |
| TGTGTCACGTGGTCAT | -0.126 kJ/mol |
| AAAGTCACGTGAGGTG | 0.586 kJ/mol |

| Sequence | relative binding free energy |
| --- | --- |
| TGGTGCACGTGAGGAA | 1.38 kJ/mol |
| GTTAGCACGTGTGGTG | 0.167 kJ/mol |
| TGGGCCACGTGGGGAG | -0.92 kJ/mol |
| AAGGTCACGTGTTTTG | 0.502 kJ/mol |
| AGTCTCACGTGTTGTA | -0.293 kJ/mol |
| ATTAACACGTGTTTTG | -0.711 kJ/mol |
| GCTTGCACGTGGGTGT | -0.377 kJ/mol |
| TTCCGCACGTGTGGGG | -0.293 kJ/mol |
| AGAAGCACGTGGTGCA | -0.586 kJ/mol |
| GCGAGCACGTGGCGTG | -0.251 kJ/mol |
| TCGGGCACGTGTATAT | -0.502 kJ/mol |
| CTGGTCACGTGTCATG | 0.377 kJ/mol |
| CAGTTCACGTGGTATA | 1 kJ/mol |
| GTTGGCACGTGTTGAG | -0.126 kJ/mol |
| TGGGCCACGTGTTCTA | 0.251 kJ/mol |
| TGTAACACGTGGGAGC | -0.92 kJ/mol |
| ATGTTCACGTGGCGAG | 0.544 kJ/mol |
| ATGGTCACGTGGGACT | 0.335 kJ/mol |
| TTAGGCACGTGGTATT | -0.46 kJ/mol |
| TTAATCACGTGTAAGA | 0.962 kJ/mol |
| AGCTACACGTGAGTGT | 0.795 kJ/mol |
| TCTTTCACGTGTGTAA | 1.42 kJ/mol |
| ATCGGCACGTGAATTG | 0.879 kJ/mol |
| TTTGTCACGTGGGCGA | -0.628 kJ/mol |
| GTCAGCACGTGCAGGT | 0.126 kJ/mol |

| Sequence | relative binding free energy |
| --- | --- |
| ATCTGCACGTGGTGCT | -0.126 kJ/mol |
| TAGATCACGTGAGTAG | 1.26 kJ/mol |
| GTTCCCACGTGAGGGG | 0.544 kJ/mol |
| TGTATCACGTGTAGAA | 0.544 kJ/mol |
| GCTGTCACGTGTATTA | 0.962 kJ/mol |
| GTTTGCACGTGGCATT | -0.335 kJ/mol |
| AGTAACACGTGGCGGT | -0.0418 kJ/mol |
| CTGGTCACGTGATCTG | 1 kJ/mol |
| AGTGACACGTGTTGCT | 0.0837 kJ/mol |
| ATAGTCACGTGGGATG | 0.0418 kJ/mol |
| TTGGTCACGTGTGTCT | 0.795 kJ/mol |
| TGGCACACGTGGGGAT | -0.335 kJ/mol |
| TGGTCCACGTGTGACG | 1.13 kJ/mol |
| TGAATCACGTGGGACG | 0.586 kJ/mol |
| GGTCGCACGTGTTTTA | -0.0418 kJ/mol |
| GTTAGCACGTGTCAGG | -0.335 kJ/mol |
| GGAGTCACGTGGAGGT | 0.879 kJ/mol |
| GTTTGCACGTGCTTTT | 0.377 kJ/mol |
| GTAGGCACGTGGTTTA | -0.879 kJ/mol |
| GAAGCCACGTGGAGGT | -0.0837 kJ/mol |
| AGTTTCACGTGATCTG | 0.879 kJ/mol |
| GGGGTCACGTGGTTAT | 0.544 kJ/mol |
| TGGGCCACGTGGATTT | -0.293 kJ/mol |
| ATGTACACGTGGAAAG | 0.502 kJ/mol |
| GGTGTCACGTGTATTC | 0.502 kJ/mol |

| Sequence | relative binding free energy |
| --- | --- |
| TTTTTCACGTGCGCTG | 1.26 kJ/mol |
| TTTAGCACGTGTCCTT | -0.0837 kJ/mol |
| ATGGACACGTGACGGT | 0.209 kJ/mol |
| GCTATCACGTGGGTGA | 0.293 kJ/mol |
| TTTTTCACGTGGGATA | 1.05 kJ/mol |
| ATTATCACGTGCGCGT | 0.126 kJ/mol |
| TTGCGCACGTGGGTTC | -1.26 kJ/mol |
| ATATACACGTGTTCTT | 0.377 kJ/mol |
| AGGCGCACGTGTGGTT | -0.293 kJ/mol |
| TGATTCACGTGATTCG | 1.09 kJ/mol |
| CATTTCACGTGAGGGG | 1.76 kJ/mol |
| GGTGTCACGTGCAGGG | 0.92 kJ/mol |
| CGGGTCACGTGAACGG | 1.38 kJ/mol |
| TTTCGCACGTGGCTGT | -0.795 kJ/mol |
| TCTGACACGTGTGATT | 0.544 kJ/mol |
| TGGTGCACGTGTGATC | 0.544 kJ/mol |
| TGAGACACGTGAAGGG | 1.21 kJ/mol |
| ATTTTCACGTGACTAG | 0.92 kJ/mol |
| AGTAACACGTGATAGG | 0.251 kJ/mol |
| TTATTCACGTGTAAGC | 1.46 kJ/mol |
| GATGGCACGTGTTGAC | 0.753 kJ/mol |
| ATTTGCACGTGATCAT | -0.126 kJ/mol |
| GGGATCACGTGATTTA | 1.42 kJ/mol |
| ATTATCACGTGCAGGG | 0.0837 kJ/mol |
| AGTGGCACGTGTTCTT | -0.377 kJ/mol |

| Sequence | relative binding free energy |
| --- | --- |
| GCTATCACGTGTGTGG | 1 kJ/mol |
| GCGATCACGTGTGGTG | 0.502 kJ/mol |
| CATGTCACGTGCTGGG | 0.377 kJ/mol |
| ATCGTCACGTGTGGTA | -0.0837 kJ/mol |
| GTGTACACGTGGCTAT | -0.293 kJ/mol |
| TGGAACACGTGTGGAG | 0.544 kJ/mol |
| ATGATCACGTGTGTTC | 0.502 kJ/mol |
| GGCGGCACGTGATTGT | 0.544 kJ/mol |
| AGATTCACGTGAGATG | 1.67 kJ/mol |
| TGGCTCACGTGTTGGG | 0.753 kJ/mol |
| TCGAGCACGTGTTGGT | -0.251 kJ/mol |
| AATGGCACGTGGATTT | -0.0418 kJ/mol |
| CAATGCACGTGAGTTG | 1.05 kJ/mol |
| GATTTCACGTGCGTTG | 0.711 kJ/mol |
| AGCTGCACGTGGGAGG | -0.377 kJ/mol |
| TAAGGCACGTGCGTAG | -0.377 kJ/mol |
| TTATTCACGTGATGGC | 1.3 kJ/mol |
| TGAAGCACGTGGAGTC | 0.209 kJ/mol |
| ATATTCACGTGCGAGT | 0.962 kJ/mol |
| TAGTGCACGTGGCGTT | -0.502 kJ/mol |
| TTCAGCACGTGGGTTA | -0.544 kJ/mol |
| GTAAACACGTGTGATT | 0 kJ/mol |
| AGGTTCACGTGCGGTT | 0.92 kJ/mol |
| AGTTGCACGTGAAGCG | 1.51 kJ/mol |
| GTTAGCACGTGAGGGA | 0.711 kJ/mol |

| Sequence | relative binding free energy |
| --- | --- |
| ATATGCACGTGTCGTT | -0.0418 kJ/mol |
| TAAGCCACGTGGGTGA | -0.502 kJ/mol |
| TTCGACACGTGGGGTA | -0.753 kJ/mol |
| ACTTGCACGTGTTATT | 0.209 kJ/mol |
| AGGGGCACGTGATAAT | -0.335 kJ/mol |
| AGTGCCACGTGGTGCG | -0.795 kJ/mol |
| AGTTACACGTGTTCAT | 0.293 kJ/mol |
| ATGTTCACGTGTGCGC | 1.34 kJ/mol |
| TAGGCCACGTGTCTGG | -0.209 kJ/mol |
| TATTACACGTGAATTG | 1.34 kJ/mol |
| AAAGTCACGTGTGACG | 0.879 kJ/mol |
| TGTTACACGTGCGTAG | 0.251 kJ/mol |
| ATAGTCACGTGAAATG | 0.92 kJ/mol |
| TTGGACACGTGGGTTC | -0.0418 kJ/mol |
| CGTTGCACGTGGGAGC | -0.293 kJ/mol |
| TTTTGCACGTGTATGC | 0.167 kJ/mol |
| TTTGTCACGTGGGCCT | -0.377 kJ/mol |
| TAATGCACGTGGTTTT | -0.251 kJ/mol |
| TAATTCACGTGGACTT | 1.17 kJ/mol |
| GATGTCACGTGTTGTA | 0.628 kJ/mol |
| TGAGACACGTGGACGT | 0.753 kJ/mol |

Source: the BET-seq Pho4 binding data (Le et al. 2018)
